Tests used:
Mouse CD47 = biological target: T1, Mouse CD47 (mouse); assay: SPR
T1 sequence (looked up): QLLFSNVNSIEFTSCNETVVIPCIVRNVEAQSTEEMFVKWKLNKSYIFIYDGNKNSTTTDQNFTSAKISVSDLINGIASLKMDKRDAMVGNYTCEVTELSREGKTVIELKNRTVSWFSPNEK

Human CD47 = Human CD47 (human); assay: SPR

B1: FH-SIRPα HV nanocage (self-assembled fusion of human ferritin heavy chain, linker peptide and SIRPα high-affinity variant) (other)
chain: [about 200 residues not written out]KESGSVSSEQLAQFRSLDEEELQIIQPDKSVLVAAGETATLRCTITSLFPVGPIQWFRGAGPGRVLIYNQRQGPFPRVTTVSDTTKRNNMDFSIRIGNITPADAGTYYCIKFRKGSPDDVEFKSGAGTELSVRAKP
notes: Expressed in E. coli from a pT7-7 vector comprising a His tag; also called FH-SIRPα nanocage; ferritin-SIRPα fusion nanocage
Kd (Mouse CD47): 370 pM
koff (Mouse CD47): 0.00041 s⁻¹
kon (Mouse CD47): 1.1e+06 M⁻¹ s⁻¹
Kd (Human CD47): 0.048 pM
koff (Human CD47): 2.4e-07 s⁻¹
kon (Human CD47): 5e+06 M⁻¹ s⁻¹
